Laboratory results as given in a collection of fitness landscapes (doi:10.1126/science.1257360).
Some of the results follow.

B1: PhoQ; a variant is named by its letters at X, in order, P23837 (parent)
chain: MKKLLRLFFPLSLRVRFLLATAAVVLVLSLAYGMVALIGYSVSFDKTTFRLLRGESNLFYTLAKWENNKLHVELPENIDKQSPTMTLIYDENGQLLWAQRDVPWLMKMIQPDWLKSNGFHEIEADVNDTSLLLSGDHSIQQQLQEVREDDDDAEMTHSVAVNVYPATSRMPKLTIVVVDTIPVELKSSYMVWSWFIYVLSANLLLVIPLLWVAAWWSLRPIEALAKEVRELEEHNRELLNPATTRELTSLVRNLNRLLKSERERYDKYRTTLTDLTHSLKTPLXXLQXXLRSLRSEKMSVSDAEPVMLEQISRISQQIGYYLHRASMRGGTLLSRELHPVAPLLDNLTSALNKVYQRKGVNISLDISPEISFVGEQNDFVEVMGNVLDNACKYCLEFVEISARQTDEHLYIVVEDDGPGIPLSKREVIFDRGQRVDTLRPGQGVGLAVAREITEQYEGKIVAGESMLGGARMEVIFGRQHSAPKDE

Variants of: B1
Assay: enrichment ratio after two sorts for PhoP signalling (ratio (wild type AVST 3.29)); higher = more functional
Details: with PhoP (E. coli)

Variant	enrichment ratio
PCDH	≤ 0.25
EPRH	≤ 0.25
ARSP	≤ 0.25
RYNW	≤ 0.25
FNCT	≤ 0.25
CLVT	≤ 0.25
NQVD	≤ 0.25
YPQA	≤ 0.25
DGVG	≤ 0.25
IPWT	≤ 0.25
YILE	≤ 0.25
PTQY	≤ 0.25
WNLK	≤ 0.25
GFIL	≤ 0.25
TKFN	≤ 0.25
HYCY	≤ 0.25
QGNG	≤ 0.25
FKWL	≤ 0.25
QQRT	≤ 0.25
LFNN	≤ 0.25
TQIS	2
MPKY	≤ 0.25
VEWS	2.49
VVFC	≤ 0.25

Variant	enrichment ratio
VDYL	≤ 0.25
DNKH	≤ 0.25
SQMF	6.14
YSDW	≤ 0.25
VEWP	≤ 0.25
EPAM	≤ 0.25
HKSG	≤ 0.25
SMSY	11.4
LLIN	≤ 0.25
MYYQ	2.46
WVVP	0.285
REIL	≤ 0.25
HHPQ	≤ 0.25
PFKP	≤ 0.25
HYTQ	≤ 0.25
VEVV	2.45
AIFF	≤ 0.25
IAIR	≤ 0.25
WEKK	≤ 0.25
PVTH	≤ 0.25
MSRP	≤ 0.25
YESM	≤ 0.25
IFFS	≤ 0.25
YNVA	≤ 0.25

Variant	enrichment ratio
HRNL	≤ 0.25
IRIG	≤ 0.25
VWLQ	≤ 0.25
PYLE	≤ 0.25
MPLG	≤ 0.25
FGYR	≤ 0.25
PLIR	≤ 0.25
AYWD	≤ 0.25
HPNS	≤ 0.25
NRDT	≤ 0.25
DMPQ	≤ 0.25
KVKA	≤ 0.25
RFRK	0.263
DFMM	≤ 0.25
DKDH	≤ 0.25
WIMS	≤ 0.25
HLNI	≤ 0.25
GIYG	0.319
HSEH	≤ 0.25
VTLA	5.19
MPNT	≤ 0.25
KIGI	≤ 0.25
YVHR	≤ 0.25
FGGD	≤ 0.25

Variant	enrichment ratio
NFYQ	≤ 0.25
IIPN	≤ 0.25
YSMH	≤ 0.25
VKIF	≤ 0.25
NHWT	≤ 0.25
NGLV	6.65
DIKF	≤ 0.25
PAVT	≤ 0.25
PVPF	≤ 0.25
HTPY	≤ 0.25
VSMQ	2.71
KGSH	≤ 0.25
YPGA	≤ 0.25
SELR	4.87
DRHW	≤ 0.25
APCM	≤ 0.25
DTYR	≤ 0.25
FWYS	≤ 0.25
TFCV	1.59
WYQR	≤ 0.25
IWLV	≤ 0.25
KCKP	≤ 0.25
AIQG	≤ 0.25
IYER	≤ 0.25

Variant	enrichment ratio
WAHF	≤ 0.25
YLIH	≤ 0.25
MNTW	≤ 0.25
NNYY	≤ 0.25
IFTR	≤ 0.25
SGAA	5.99
QFLQ	≤ 0.25
QTFV	≤ 0.25
PCEI	≤ 0.25
SQNR	≤ 0.25
ETAG	≤ 0.25
FNVY	≤ 0.25
FFPL	≤ 0.25
SLWF	≤ 0.25
HNVY	≤ 0.25
DMCQ	≤ 0.25
FTHE	≤ 0.25
KIHS	≤ 0.25
PCYY	≤ 0.25
VTRM	≤ 0.25
PRAS	≤ 0.25
DISP	≤ 0.25
PFGC	≤ 0.25
ELGT	≤ 0.25

Variant	enrichment ratio
REPG	≤ 0.25
SEKL	≤ 0.25
SEFG	15.8
WENS	≤ 0.25
DGRA	≤ 0.25
TDAS	11.6
QLAG	≤ 0.25
HADN	≤ 0.25
LAAI	≤ 0.25
QGDV	7.87
WIQF	≤ 0.25
TSHY	7.3
GTWP	≤ 0.25
FAHN	≤ 0.25
VPEI	≤ 0.25
AVFT	≤ 0.25
FYFH	≤ 0.25
KLTL	≤ 0.25
RKTI	≤ 0.25
GFKN	≤ 0.25
ECSF	≤ 0.25
DVPD	≤ 0.25
HTYW	≤ 0.25
PQFN	≤ 0.25

Variant	enrichment ratio
AWPH	≤ 0.25
SHAL	0.434
RDVN	≤ 0.25
SMCD	2.56
YRAQ	≤ 0.25
SIFQ	1.13
VPHL	≤ 0.25
HNMT	≤ 0.25
FDFY	≤ 0.25
YFGW	≤ 0.25
SMVG	8.8
VAFA	≤ 0.25
MDCN	≤ 0.25
WPNE	≤ 0.25
LAMK	≤ 0.25
PFHN	0.873
GENR	≤ 0.25
YNER	≤ 0.25
DAQR	≤ 0.25
PIRP	≤ 0.25
YVDF	≤ 0.25
PAMN	≤ 0.25
RYDT	≤ 0.25
ECFW	≤ 0.25

Variant	enrichment ratio
KQKR	≤ 0.25
TNQI	0.317
NILW	≤ 0.25
AVPD	≤ 0.25
FDYM	≤ 0.25
ESIR	≤ 0.25
IFHG	≤ 0.25
TPKR	≤ 0.25
DGLD	≤ 0.25
VQLH	≤ 0.25
RLAP	≤ 0.25
EVDY	≤ 0.25
KWNH	≤ 0.25
SAER	≤ 0.25
NHGK	≤ 0.25
KIKV	≤ 0.25
PGRP	≤ 0.25
QSVN	≤ 0.25
SGCW	≤ 0.25
NERF	≤ 0.25
TQKP	≤ 0.25
YRKR	≤ 0.25
QHAP	≤ 0.25
NGDH	≤ 0.25

Variant	enrichment ratio
EAYR	≤ 0.25
RAPY	≤ 0.25
LIQC	≤ 0.25
MFSA	≤ 0.25
GFGG	≤ 0.25
MQRY	≤ 0.25
GLIK	≤ 0.25
WQGL	≤ 0.25
AWFY	≤ 0.25
ADPR	≤ 0.25
SEIP	≤ 0.25
IQTA	≤ 0.25
IMEY	≤ 0.25
PYTY	≤ 0.25
ANDW	≤ 0.25
EEDS	≤ 0.25
FQGV	≤ 0.25
WPLR	≤ 0.25
PTGT	≤ 0.25
GNHM	≤ 0.25
FTIF	≤ 0.25
DGVQ	≤ 0.25
PLFG	≤ 0.25
LKDT	≤ 0.25

Variant	enrichment ratio
LCYH	≤ 0.25
TFYP	≤ 0.25
QYAC	≤ 0.25
GDWR	≤ 0.25
VSNP	≤ 0.25
KNDA	≤ 0.25
PDST	≤ 0.25
YNIK	≤ 0.25
MQVG	≤ 0.25
ARFQ	≤ 0.25
GNGC	≤ 0.25
HAMN	≤ 0.25
DWTI	≤ 0.25
IYQA	≤ 0.25
FQWE	1.71
RKPP	≤ 0.25
RTHN	≤ 0.25
DFNR	≤ 0.25
NDYH	≤ 0.25
GESR	≤ 0.25
PIHP	≤ 0.25
NCDW	≤ 0.25
MPVI	≤ 0.25
LMDW	≤ 0.25

Variant	enrichment ratio
STMT	16.6
NQSV	0.26
THWV	≤ 0.25
FLDL	≤ 0.25
FCPV	≤ 0.25
ESKL	≤ 0.25
VMCL	≤ 0.25
DMWC	≤ 0.25
VTYV	≤ 0.25
GFHH	≤ 0.25
DVLI	≤ 0.25
QDSS	≤ 0.25
AWVV	≤ 0.25
PCLL	≤ 0.25
LHRL	≤ 0.25
WTTN	≤ 0.25
LIIF	≤ 0.25
MQSC	≤ 0.25
DMLD	≤ 0.25
HEHS	≤ 0.25
KIAF	≤ 0.25
LRGT	≤ 0.25
LTYA	≤ 0.25
IHRE	≤ 0.25

Variant	enrichment ratio
THLF	3.38
KDNW	≤ 0.25
LKDC	≤ 0.25
QIVS	≤ 0.25
AKMR	≤ 0.25
GWDH	≤ 0.25
RICM	≤ 0.25
YGAS	≤ 0.25
HTPN	≤ 0.25
MCSC	≤ 0.25
PTAH	≤ 0.25
RALM	≤ 0.25
IDPV	≤ 0.25
KLEQ	≤ 0.25
PLDK	≤ 0.25
SISP	≤ 0.25
KQTN	≤ 0.25
LIMG	≤ 0.25
APDC	≤ 0.25
PQTP	≤ 0.25
SRNA	≤ 0.25
STGR	≤ 0.25
AYAL	≤ 0.25
VHHL	≤ 0.25

Variant	enrichment ratio
FVMI	1.82
ICDI	≤ 0.25
MTPK	≤ 0.25
SKGM	≤ 0.25
PATD	≤ 0.25
FCKF	≤ 0.25
WHEF	≤ 0.25
PHFW	≤ 0.25
TSVM	3.12
VYEK	≤ 0.25
SINV	≤ 0.25
QMPP	≤ 0.25
KACK	≤ 0.25
EIWR	≤ 0.25
DQND	≤ 0.25
VGFC	≤ 0.25
ISFS	≤ 0.25
LIMA	≤ 0.25
